Source: the supplement of paper PMC8007513
Where a name gives a salt, the structure may show the parent alone. ± gives the standard error. Out of some 1,300 compounds screened, about 75 (6%) showed an effect of 50% or more. Some of the results follow.

Test system: Trichoderma virens ATCC 9645
Assay: growth yield (OD600) relative to untreated control; higher = less growth inhibition
Conditions: compound concentration: 100 uM
Method in brief: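 A biocide at 200 ng ml^−1 was co-applied to some wells, and library compounds were present in all test wells at 100 μM final. The wells held 100 μl of Trichoderma virens ATCC 9645 spores at 15,000 spores ml^−1 in potato dextrose broth, grown at 30 °C in 96-well plates, with OD600 read at 40 h and 72 h. Results are relative growth against the control without either agent, averaged across duplicate screens.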

Structure (SMILES)	growth yield (40 h)	growth yield (72 h)
COc1cc(N)c(Cl)cc1C(=O)NC1CCN(CCCOc2ccc(F)cc2)CC1OC (configuration not stated) [Cisapride]	108%	109%
COC1=CC(=O)C[C@@H](C)[C@]12Oc1c(Cl)c(OC)cc(OC)c1C2=O [Griseofulvin]	81.3 ± 10%	93.7 ± 6.8%
CCOC(=O)C1=C(C)NC(C)=C(C(=O)OC)C1c1cccc([N+](=O)[O-])c1 (configuration not stated) [Nitrendipine]	85.6 ± 1.1%	89.9 ± 3.7%
CCn1cc(C(=O)O)c(=O)c2cc(F)c(N3CCNCC3)cc21 [Norfloxacin]	93.1 ± 1.9%	90.9 ± 3.2%
O=C(c1ccc(OCCN2CCCCC2)cc1)c1c(-c2ccc(O)cc2)sc2cc(O)ccc12 [Raloxifene hydrochloride]	97.1 ± 8.7%	106 ± 8.2%
CC(CN1c2ccccc2Sc2ccccc21)N(C)C (configuration not stated) [Promethazine hydrochloride]	98.5%	103 ± 1.1%
NS(=O)(=O)c1cc2c(cc1C(F)(F)F)NC(Cc1ccccc1)NS2(=O)=O (configuration not stated) [Bendroflumethiazide]	106 ± 3.3%	102 ± 3.4%
COc1cc(N)c(Cl)cc1C(=O)NC1CCN(Cc2ccccc2)CC1 [Clebopride maleate]	99.28 ± 0.48%	102 ± 1.5%
CCN1CCCC1CNC(=O)c1cc(S(=O)(=O)CC)c(N)cc1OC (configuration not stated) [Amisulpride]	96.6 ± 1.6%	99.5 ± 1.6%
Nc1nc(N)nc(-c2cc(Cl)ccc2Cl)n1 [Irsogladine maleate]	99.43 ± 0.95%	93.8 ± 1.1%
CC(C)[C@H]1CC[C@H](C(=O)N[C@H](Cc2ccccc2)C(=O)O)CC1 [Nateglinide]	99.1 ± 5.4%	94 ± 6.7%
CC(C)c1nc(CN(C)C(=O)N[C@H](C(=O)N[C@@H](Cc2ccccc2)C[C@H](O)[C@H](Cc2ccccc2)NC(=O)OCc2cncs2)C(C)C)cs1 [Ritonavir]	112 ± 4.8%	115 ± 9.1%
COc1ccccc1OCCNCC(O)COc1cccc2[nH]c3ccccc3c12 (configuration not stated) [Carvedilol]	108 ± 4%	111.8 ± 1.1%
CC1CCc2cc(F)cc3c(=O)c(C(=O)O)cn1c23 (configuration not stated) [Flumequine]	95.5 ± 2.4%	98.9 ± 4.7%
O=C(NCC1CCCCN1)c1cc(OCC(F)(F)F)ccc1OCC(F)(F)F (configuration not stated) [Flecainide acetate]	98 ± 2.7%	95.2 ± 4.8%
CCCCOc1ccc(OCCCN2CCOCC2)cc1 [Pramoxine hydrochloride]	89.6 ± 1.9%	90.5 ± 2.2%
CC(CCc1ccc(O)cc1)NCCc1ccc(O)c(O)c1 (configuration not stated) [Dobutamine hydrochloride]	90.5 ± 1.6%	88.9 ± 3.1%
CNCC[C@@H](Oc1cccc2ccccc12)c1cccs1 [(R)-Duloxetine hydrochloride]	99.1 ± 2.9%	107 ± 3.1%
Nc1ccc(S(N)(=O)=O)cc1 [Sulfanilamide]	105 ± 4.5%	100 ± 3.4%
CCOC(=O)c1ccc(C#Cc2ccc3c(c2)C(C)(C)CCS3)nc1 [Tazarotene]	90.38 ± 0.48%	95.65 ± 0.21%
CCC(C)(C)c1ccc(CC(C)CN2C[C@@H](C)O[C@@H](C)C2)cc1 (some centres not stated) [Amorolfine hydrochloride]	4.45 ± 0.32%	2.94 ± 0.21%
CC[C@]12CCCN3CCc4c(n(c5ccccc45)[C@@](O)(C(=O)OC)C1)[C@@H]32 [Vincamine]	97.37 ± 0.16%	95.3 ± 1.4%

Structure (SMILES)	growth yield (40 h)	growth yield (72 h)
CNC1(C)C2CCC(C2)C1(C)C (configuration not stated) [Mecamylamine hydrochloride]	95.8 ± 5.6%	91.7 ± 2.9%
CC(=C(CCO)SSCC1CCCO1)N(C=O)Cc1cnc(C)nc1N (stereo in doubt) [Fursultiamine Hydrochloride]	104 ± 5.2%	101 ± 3.1%
CCC(C)(CN(C)C)OC(=O)c1ccccc1 (configuration not stated) [Amyleine hydrochloride]	103 ± 6.8%	100 ± 4.6%
C=C(NC(=O)C(=C)NC(=O)c1csc(C2=N[C@@H]3c4csc(n4)[C@H]4NC(=O)c5csc(n5)[C@H]([C@](C)(O)[C@@H](C)O)NC(=O)[C@H]5CSC(=N5)/C(=C/C)NC(=O)[C@H]([C@@H](C)O)NC(=O)c5csc(n5)[C@]3(CC2)NC(=O)[C@H](C)NC(=O)C(=C)NC(=O)[C@H](C)NC(=O)[C@H]([C@@H](C)CC)N[C@@H]2C=Cc3c([C@H](C)O)cc(nc3[C@H]2O)C(=O)O[C@@H]4C)n1)C(N)=O [Thiostrepton]	96.6 ± 2.9%	99 ± 2.1%
Cn1c(=O)c2c(ncn2CC(O)CO)n(C)c1=O (configuration not stated) [Diprophylline]	102 ± 4%	101 ± 2.8%
NC(=O)c1cccnc1 [Nicotinamide]	105 ± 4.3%	101 ± 4%
CC(C)(Oc1ccc(C2CC2(Cl)Cl)cc1)C(=O)O (configuration not stated) [Ciprofibrate]	95.5 ± 2.4%	85.58 ± 0.84%
CC1=C(C(=O)O)N2C(=O)[C@@H](NC(=O)[C@H](N)c3ccc(O)cc3)[C@H]2SC1 [Cefadroxil]	104 ± 8.9%	106 ± 9.1%
C=CCN1CCCC1CNC(=O)c1cc2nn[nH]c2cc1OC (configuration not stated) [Alizapride hydrochloride]	108 ± 4.3%	109 ± 2.7%
CCN(CCCc1ccccc1)CCCc1ccccc1 [Alverine citrate salt]	97.85 ± 0.95%	98.2 ± 2.1%
O=P(O)(O)C(O)(Cc1cccnc1)P(=O)(O)O [Risedronic acid monohydrate]	102.9 ± 0.95%	101.2 ± 0.32%
CCN(CC)C(=O)N1CCN(C)CC1 [Diethylcarbamazine citrate]	101 ± 2.5%	104.7 ± 0.63%
C=CC[N@@+]12CC[C@@]34c5ccccc5N5/C=C6/[C@H]7C[C@H]8[C@@]9(CC[N@@+]8(CC=C)C/C7=C/CO)c7ccccc7N(/C=C(/[C@@H](C[C@@H]31)/C(=C\CO)C2)[C@H]54)[C@@H]69 [Alcuronium chloride]	66.1 ± 7.6%	65.8 ± 5.3%
CCCC(C(=O)OCCN(CC)CC)(c1ccccc1)c1ccccc1 [Proadifen hydrochloride]	101 ± 2.5%	107 ± 3.2%
Clc1ccc(COC(Cn2ccnc2)c2ccc(Cl)cc2Cl)cc1 (configuration not stated) [Econazole nitrate]	2.22 ± 0.64%	1.78 ± 0.52%
CO/N=C1\CN(c2nc3c(cc2F)c(=O)c(C(=O)O)cn3C2CC2)CC1CN (configuration not stated) [Gemifloxacin mesylate]	101%	101.7 ± 0.84%
Clc1ccccc1C(c1ccccc1)(c1ccccc1)n1ccnc1 [Clotrimazole]	2.38 ± 1.8%	1.89 ± 1.1%
O=C(O)c1cc(=O)c2c(OCC(O)COc3cccc4oc(C(=O)O)cc(=O)c34)cccc2o1 [Cromolyn disodium salt]	97.8 ± 1.3%	96.28 ± 0.21%
NC[C@H]1CC[C@H](C(=O)O)CC1 [Tranexamic acid]	99.75 ± 0.64%	102.2 ± 0.73%
C=CCc1ccccc1OCC(O)CNC(C)C (configuration not stated) [Alprenolol hydrochloride]	104 ± 0.79%	101.6 ± 0.73%
CC(=O)OC(C)C[N+](C)(C)C (configuration not stated) [Methacholine chloride]	104 ± 5.1%	97.64 ± 0.73%
CCCCOc1ccc(CC(=O)NO)cc1 [Bufexamac]	94.2 ± 1.1%	88.1 ± 2.9%

Structure (SMILES)	growth yield (40 h)	growth yield (72 h)
Cc1ccc(O)c([C@H](CCN(C(C)C)C(C)C)c2ccccc2)c1 [Tolterodine tartrate]	96.7 ± 2.7%	97.95 ± 0.42%
CCSc1ccc2c(c1)N(CCCN1CCN(C)CC1)c1ccccc1S2 [Thiethylperazine dimalate]	3.02 ± 0.16%	2.73 ± 0.42%
Cc1c(O)cccc1C(=O)N[C@@H](CSc1ccccc1)[C@H](O)CN1C[C@H]2CCCC[C@H]2C[C@H]1C(=O)NC(C)(C)C [Nelfinavir mesylate]	113.9 ± 0.16%	111 ± 1.4%
CN(C)CCC(c1ccccc1)c1ccccn1 (configuration not stated) [Pheniramine maleate]	101 ± 6.5%	98.6 ± 3.1%
Cc1c(F)c(N2CCNC(C)C2)cc2c1c(=O)c(C(=O)O)cn2C1CC1 (configuration not stated) [Grepafloxacin]	99.9 ± 1.4%	97.53 ± 0.63%
N=C(N=C(N)N)N1CCOCC1 [Moroxidine hydrochloride]	106 ± 4.3%	104 ± 1.9%
CC(=O)OCC(=O)[C@@]12OC3(CCCC3)O[C@@H]1C[C@H]1[C@@H]3CCC4=CC(=O)C=C[C@]4(C)[C@@]3(F)[C@@H](O)C[C@@]12C [Amcinonide]	97.5 ± 4.1%	98.8 ± 2.5%
CCCC(=O)Nc1ccc(OCC(O)CNC(C)C)c(C(C)=O)c1 (configuration not stated) [Acebutolol hydrochloride]	101 ± 7.3%	98.1 ± 3.9%
CC(=O)Nc1ccc(OCC(O)CNC(C)C)cc1 (configuration not stated) [Practolol]	102.1 ± 0.48%	104.6 ± 0.94%
CN1[C@@H]2CC[C@H]1C[C@@H](OC(c1ccccc1)c1ccccc1)C2 [Benztropine mesylate]	105 ± 3.6%	102 ± 1.7%
O=C(Nc1ccccc1)OCC(CN1CCCCC1)OC(=O)Nc1ccccc1 (configuration not stated) [Diperodon hydrochloride]	102.1 ± 0.16%	103.51 ± 0.1%
CCCCC1C(=O)N(c2ccccc2)N(c2ccccc2)C1=O [Phenylbutazone]	115 ± 7.9%	110 ± 6.8%
COCCCOc1cc(C[C@@H](C[C@H](N)[C@@H](O)C[C@H](C(=O)NCC(C)(C)C(N)=O)C(C)C)C(C)C)ccc1OC [Aliskiren hemifumarate]	98.48 ± 0.32%	99.11 ± 0.73%
CCCCOC(=O)c1ccc(O)cc1 [Butylparaben]	46.4 ± 2.2%	49.5 ± 0.84%
CCCc1nc2c(C)cc(-c3nc4ccccc4n3C)cc2n1Cc1ccc(-c2ccccc2C(=O)O)cc1 [Telmisartan]	103 ± 6.5%	97.4 ± 3.5%
CC(=O)/N=c1/sc(S(N)(=O)=O)nn1C [Methazolamide]	98.2 ± 2.5%	97 ± 2.4%
N=C(N)N1CCc2ccccc2C1 [Debrisoquin sulfate]	97.5 ± 1.3%	101.8 ± 0.52%
COCCCOc1ccnc(C[S+]([O-])c2nc3ccccc3[nH]2)c1C (configuration not stated) [Rabeprazole Sodium salt]	99.6 ± 3.6%	98.3 ± 3.2%
O=C(O)Cc1cc(I)c(Oc2ccc(O)c(I)c2)c(I)c1 [Tiratricol, 3,3',5-triiodothyroacetic acid]	28.9 ± 16%	46.6 ± 17%
CNCC[C@@H](Oc1ccccc1C)c1ccccc1 [Tomoxetine hydrochloride]	97.69 ± 0.79%	100.8 ± 0.52%
O=C(CCCCC(=O)Nc1c(I)cc(I)c(C(=O)O)c1I)Nc1c(I)cc(I)c(C(=O)O)c1I [Iodipamide]	103 ± 1.1%	101.6 ± 0.32%
CC(C)(C)NCC(O)COc1cccc2c1CC(O)C(O)C2 (configuration not stated) [Nadolol]	105 ± 4.1%	100 ± 2.6%
